Data as given in PubChem BioAssay AID1347120 (National Center for Advancing Translational Sciences (NCATS), 2019).
Among all 390,000 compounds or so, about 930 (0.24%) were called active. Inconclusive results, whose numbers are uncertain, are shown with a selection of clear calls. The call rests on the fitted dose curve; in most records, active means well fitted activation curve with a large enough effect; inconclusive means small, poorly fitted or top-dose-only effect; inactive means no such curve, though single readings can be large or run the other way. Potencies beside an inconclusive call are fits to weak or partial responses and may not hold up.

assay: qHTS for Suppressors of FUS Proteinopathy: Primary screen using FUS-linked yeast assay; further: nearly all actives have a fitted effect of over 55% in size;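 on growth rescue (activation): plate controls were DMSO vehicle for no effect and reference control for full effect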; conditions: S. cerevisiae FUS-expressing, OD600, 24 h; Potency: growth rescue; growth rescue (activation): at 76.6 µM (top of the series)
Outline: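 Galactose (2%) drives FUS expression in yeast precultured in raffinose; seeding density OD 0.005. Test compounds incubated 24hr at 30C and 99% humidity before absorbance at 600 nm was measured.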
Potency means the concentration at half of the fitted maximal effect; tags describe the fitted curve by direction and shape.

SMILES	Potency	growth rescue (activation)
CC(=O)N1N=C(c2ccc(Br)cc2)CC1c1ccc(Br)cc1 (stereo unspecified)	inactive	–
CC(C)(C)OC(=O)N1CCC(c2c(C(=O)NCc3ccco3)cnn2-c2ccccc2Cl)CC1	inconclusive: 12.6 µM [activator, partial curve, poor fit]	–
COc1ccc(C(=O)Nc2cc3c(cc2N2CCCC2)n(C)c(=O)c(=O)n3C)cc1OC	inactive	–
COc1ccc(OC)c(N2Cc3cc(C)c(C)cc3C2)c1	inconclusive: 25.1 µM [activator, partial curve]	–
Brc1ccc(-c2nc3ccccc3s2)s1	inactive	–
O=Cc1cc(N=Nc2ccccc2Cl)ccc1O	inactive	–
Cc1ccc(S(=O)(=O)N2CCOCC2)cc1NC(=O)c1cc(-c2ccccn2)nc2ccccc12	inconclusive: 15.8 µM [activator, partial curve]	–
Cc1ccccc1OCC(=O)N(Cc1ccc(C(C)C)cc1)C1CCS(=O)(=O)C1 (stereo unspecified)	inconclusive: 39.8 µM [activator, single point]	–
Cc1cc(C)cc(NC(=O)CSc2nnc(CN3CCOCC3)n2C)c1	–	inconclusive: 60.1% [activator]
Cc1ccc(C)c(CN2C(=O)C(O)(c3c[nH]c4ccccc34)c3ccccc32)c1 (stereo unspecified)	inconclusive: 39.8 µM [activator, single point]	–
CC1(Cc2ccc3c(c2)OCO3)C(=O)Nc2c(Cl)ccc(Cl)c21 (stereo unspecified)	inactive	–
CC(C)C1Nc2ccc(S(N)(=O)=O)cc2C2C=CCC21 (stereo unspecified)	inconclusive: 20 µM [activator, partial curve, poor fit]	–
COC(=O)CN1C(=O)C(C)(C)c2cc(S(=O)(=O)Nc3ccc(C(C)C)cc3)ccc21	inconclusive: 50.1 µM [activator, single point]	–
O=C(CSc1nnc(COc2ccc(Cl)cc2Cl)o1)Nc1ccccn1	inactive	–
COc1ccc(CC(=O)Nc2nnc(C(C)(C)C)s2)cc1OC	inactive	–
Cc1ccc(S(=O)(=O)N2CCN(C(=O)COC(=O)c3cc([N+](=O)[O-])ccc3NCCO)CC2)c(C)c1	inconclusive: 31.6 µM [activator, single point]	–
Nc1nnc(-c2ccncc2)s1	inactive	–
COc1ccc(CCNC(=O)CCCn2c(=O)c3cccn3c3ccc(F)cc32)cc1OC	inactive	–
COc1ccc(C(=O)NCc2ccc(C)cc2)cc1S(=O)(=O)N1CCCc2ccccc21	inconclusive: 35.5 µM [activator, partial curve, poor fit]	–
CC(=O)Nc1ccc(-c2csc(NNC(=O)c3ccccc3)n2)cc1	inconclusive: 20 µM [activator, single point]	–
CCS(=O)(=O)c1nc(S(=O)(=O)c2ccc(C)cc2)c(NCc2ccccc2Cl)s1	inconclusive: 50.1 µM [activator, single point]	–
C/C(=N/NC(=O)c1nnn(-c2nonc2N)c1COc1ccccc1)c1ccc(O)cc1	inconclusive: 50.1 µM [activator, partial curve, poor fit]	–

SMILES	Potency	growth rescue (activation)
CCCCn1c(SCC(=O)Nc2ccc(NC(C)=O)cc2)nc2ccccc2c1=O	inconclusive: 35.5 µM [activator, single point]	–
CC(Nc1nc(N2CCNCC2)nc2ccccc12)c1ccccc1 (stereo unspecified)	inconclusive: 12.6 µM [activator, partial curve, poor fit]	–
N#C/C(=N\Nc1cccc(Cl)c1)C(=O)c1ccccc1	inactive	–
CN(c1c2c(nc3ncnn13)CCCC2)C1CCCCC1	inactive	–
CCOC(=O)c1sc2nc3c(cc2c1N)COC(C)(CC)C3 (stereo unspecified)	inactive	–
O=C(Nc1ccc2nc(-c3ccco3)c(-c3ccco3)nc2c1)NC1CC1	inconclusive: 14.1 µM [activator, partial curve]	–
O=C(NCc1nc2ccccc2[nH]1)C1=C[C@H](c2csc3ccccc23)C[C@H](OCc2ccc(CO)cc2)O1	inconclusive: 15.8 µM [activator, partial curve]	–
CC(/C=C1\SC(=S)N(CCCC(=O)Nc2ccc(C(=O)O)cc2)C1=O)=C\c1ccccc1	inconclusive: 12.6 µM [activator, partial curve, poor fit]	–
CC(=O)Oc1ccc(N(C(C)=O)S(=O)(=O)c2ccc(C)cc2)c2ccccc12	inconclusive: 31.6 µM [activator, partial curve, poor fit]	–
CCc1cccc(CC)c1NC(=O)CSc1nc2ccc(N3C(=O)C4C5C=CC(C5)C4C3=O)cc2s1 (stereo unspecified)	inconclusive: 31.6 µM [activator, single point]	–
COc1ccccc1NC(=O)Nc1cccc(C(=O)O)c1	inactive	–
CC(C)Cn1c(CN(Cc2ccccc2)Cc2ccccc2)nc2c1c(=O)n(C)c(=O)n2C	active: 31.6 µM	–
Cc1ccc(N2C(=O)C(CC(=O)Nc3ccccc3)N(CCC3=CCCCC3)C2=O)cc1 (stereo unspecified)	inconclusive: 39.8 µM [activator, partial curve, poor fit]	–
CSc1ccccc1NC(=O)COC(=O)/C=C/c1ccco1	inactive	–
CSCCCNC(=O)CN1C(=O)C2CCCCN2C(=O)c2ccccc21 (stereo unspecified)	inactive	–
O=C(c1ccc([N+](=O)[O-])cc1)N(Cc1ccc(Cl)cc1Cl)N1C(=O)CCCC1=O	–	inconclusive: 64.3% [activator]
COc1ccc(C(=O)Nc2ccnn2C2CCN(Cc3cnn(C)c3)CC2)cc1	inactive	–
CCN(C(=O)/C=C/c1ccc(OC)cc1)C1CCCCC1	inactive	–
COC(=O)C1=CN(c2ccc(Oc3ccccc3)cc2)C(N)=C(C#N)C1c1ccc(-c2ccccc2)cc1 (stereo unspecified)	inconclusive: 31.6 µM [activator, single point]	–
COc1ccc(CN2C(=O)c3ccccc3C(/C=N/OCc3ccc(Cl)cc3)C2=O)cc1 (stereo unspecified)	inconclusive: 10 µM [activator, partial curve]	–
COc1ccc(OC)c(C(C(=O)NC2CCCCC2)N(Cc2ccco2)C(=O)c2ccccn2)c1 (stereo unspecified)	inactive	–
Cc1cc(-c2ccccc2)nc(N/N=C/c2ccc(O)cc2O)n1	inconclusive: 10 µM [activator, full curve, poor fit]	–

SMILES	Potency	growth rescue (activation)
Cc1ccc2nc(N3CCC(C(=O)O)CC3)nc(-c3ccccc3)c2c1	inactive	–
CCOc1ccc(CCNC(=O)c2cnc3c(-c4ccccc4)c(C)nn3c2C)cc1OCC	inactive	–
Clc1cccc(-c2ccc(-c3nc4ccccn4c3NCc3ccccc3)cc2)c1	inconclusive: 50.1 µM [activator, single point]	–
O=C(c1cnn2c(C(F)(F)F)cc(-c3ccco3)nc12)N1CCc2ccccc2C1	inconclusive: 22.4 µM [activator, partial curve, poor fit]	–
c1ccc(Cc2ccc(OCCN3CCOCC3)cc2)cc1	inactive	–
CCCCC[C@H](C)N1C[C@@H](COCc2ccccc2)Oc2cc(N3CC[C@H](O)C3)ccc2S1(=O)=O	inconclusive: 10 µM [activator, full curve]	–
O=C(CCc1ccccc1)N[C@H]1[C@H](OC(=O)c2cnccn2)CCC[C@@]12C(=O)N(Cc1ccccc1)c1ccccc12	inconclusive: 25.1 µM [activator, single point]	–
Cc1ccc(N=C2NC(=O)S/C2=C\c2ccco2)cc1	inactive	–
CN(C)c1c([N+](=O)[O-])cc(N2C(=O)C=CC2=O)cc1[N+](=O)[O-]	inactive	–
COc1ccc(CCC(=O)NCc2ccc3c(c2)CCN3C(=O)c2cccc(C)c2)cc1	inconclusive: 25.1 µM [activator, single point]	–
CCCOc1ccc(CNC(=O)C2CCN(c3nn4c(=O)cc(C)nc4s3)CC2)cc1	inconclusive: 11.2 µM [activator, partial curve, poor fit]	–
COC(=O)[C@]12C[C@H](CC(=O)NCCC(C)C)C(=O)N(CCc3ccc(OC)c(OC)c3)C1=C[C@H](COCc1ccccc1)O[C@@H]2C	inconclusive: 28.2 µM [activator, single point]	–
Clc1cccc(NCc2nnc(SCc3ccc(Cl)cc3Cl)o2)c1	inconclusive: 44.7 µM [activator, single point]	–
C=CCn1c(N)cc(=O)nc1SCC(=O)Nc1ccc2ccccc2c1	inconclusive: 28.2 µM [activator, partial curve, poor fit]	–
COc1ccc(Cn2cc(CN3CCS(=O)(=O)N(Cc4ccc(-c5cccc(Cl)c5)cc4)C(C)C3=O)nn2)cc1 (stereo unspecified)	inconclusive: 11.2 µM [activator, partial curve, poor fit]	–
COc1ccc(Br)cc1CNC(=O)C1CCCN(S(=O)(=O)N2CCC(C)CC2)C1 (stereo unspecified)	inconclusive: 22.4 µM [activator, partial curve]	–
O=C(C[C@@H]1C/C=C\CC[C@H](Cc2ccc(F)cc2)C(=O)OC[C@@H]2CCCN2C1=O)N[C@H](CO)Cc1ccccc1	inconclusive: 11.2 µM [activator, partial curve, poor fit]	–
Cc1cc(O)ccc1Nc1nc(-c2cccs2)cs1	inconclusive: 31.6 µM [activator, partial curve]	–
CCCOc1ccc(F)cc1-c1cc(C(=O)Nc2ccc(C(C)C)cc2)[nH]n1	inactive	–
Cc1cc(C(=O)CSc2nnc(-c3cccc(F)c3)n2N)c(C)n1Cc1ccc2c(c1)OCO2	inconclusive: 35.5 µM [activator, partial curve, poor fit]	–
CCOc1ccccc1NC(=O)CCN1CCN(S(=O)(=O)c2ccc(Br)cc2)CC1	inconclusive: 11.2 µM [activator, single point]	–
COc1ccc([C@H]2/C=C\CN(S(=O)(=O)c3ccc(C)cc3)[C@@H](C)C(=O)N2Cc2ccc(F)cc2)cc1	inconclusive: 20 µM [activator, single point]	–
